According to the supplement of paper PMC5499739:
In all, about 16,000 sequences were measured (“Z-score”: median about -0.37, highest 2% from about 3.2 on). The list shows a part of the results.

These sequences were tested on RBM10 RRM1-ZnF (GST-tagged construct) (assay: RNAcompete 7-mer binding Z-score; higher = stronger binding preference).
Method: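 RNAcompete: 20 pmol GST-tagged RBM10 RNA-binding constructs were incubated with a designed RNA pool of about 241,000 sequences up to 41 nt (1.5 nmol) on glutathione beads for 30 min at 4 °C and washed. Bound RNAs were identified by microarray hybridisation. Each RNA 7-mer is scored by a one-sided Z-score of its enrichment, computed over probes that contain the 7-mer within longer pool sequences.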

| Sequence | RNAcompete 7-mer binding Z-score |
| --- | --- |
| GGAGCUG | 1.74 |
| CUAGGAA | 0.589 |
| UUCUCUC | -0.756 |
| UGAGUGC | 0.254 |
| GCUGCGG | 1.13 |
| CAACAAG | -0.184 |
| GAAACUC | -0.659 |
| CUCGCUA | -0.655 |
| UUCAACG | -0.535 |
| GGAUCAG | 1.4 |
| AUGUCAA | -0.308 |
| GUCCCGG | 0.118 |
| AGUAGGU | 1.68 |
| CGACGAC | -0.311 |
| UGACAUG | 0.319 |
| GCAUCCU | -0.746 |
| GUACGCU | -0.0674 |
| AAGAUGA | 0.417 |
| GAACAAG | 0.907 |
| UCGGAUC | -0.184 |
| UAUCGCC | -0.617 |
| AGUGACC | -0.00896 |
| CUAUGCA | -0.48 |
| GUCUGUA | -0.539 |

| Sequence | RNAcompete 7-mer binding Z-score |
| --- | --- |
| CACCUAG | -0.188 |
| CUAUGGC | -0.461 |
| CCAAUUA | -0.513 |
| GCGAUAU | -0.155 |
| GUAAGCG | 1.03 |
| GACUGGG | 2.42 |
| UGUGUGU | 0.0788 |
| UCGGGUG | 2.34 |
| CAUCCUG | -0.759 |
| GUUAUGG | 1.95 |
| GGGAUAA | 3.48 |
| AGUAAGG | 3.03 |
| CUUGCGA | -0.724 |
| UUGAGAC | -0.178 |
| UGAGGGU | 3.48 |
| AUUGUGC | -0.383 |
| UCGUAGG | 0.277 |
| UAGGCAU | 0.16 |
| GUUGGCU | 0.27 |
| CUGCGUA | -0.506 |
| AUUUCAU | -0.805 |
| AAGGACC | 0.725 |
| AGGUGUU | 0.988 |
| CGCGCCU | -0.753 |

| Sequence | RNAcompete 7-mer binding Z-score |
| --- | --- |
| GGUUAUC | 0.634 |
| AGCGGGU | 3.07 |
| UCGAGAA | -0.0967 |
| AGCAAUG | 0.043 |
| AUCAGGG | 1.97 |
| AAUAGCU | -0.474 |
| AUGUCUG | -0.48 |
| CUAGUUU | -0.782 |
| GCUCCGG | -0.191 |
| UGCCAAG | -0.314 |
| UCACUUA | -0.724 |
| CUCAAUG | -0.493 |
| AGCCUCA | -0.811 |
| CCCUGGG | 0.667 |
| CACUUCG | -0.6 |
| UCCGCCC | -0.591 |
| ACAGCGC | -0.604 |
| GAGCAAC | -0.0902 |
| ACAGUCA | -0.217 |
| UUAACGA | -0.438 |
| UUAAUAU | -0.529 |
| UUUUACA | -0.707 |
| UCAGGUG | 1.34 |
| AUGGUCC | -0.0479 |

| Sequence | RNAcompete 7-mer binding Z-score |
| --- | --- |
| ACACUUC | -0.834 |
| AUUAUCC | -0.73 |
| UGAGCUC | -0.37 |
| CAAUGCA | -0.629 |
| CAGAUUC | -0.61 |
| GUAUAGA | 0.774 |
| AUAAGGG | 3.77 |
| ACAAUCG | -0.392 |
| UUUGACC | -0.88 |
| CGAUGAU | -0.246 |
| UGGCGUA | 0.316 |
| CUAUCGG | -0.5 |
| CAUCCGA | -0.698 |
| CGAAUGU | -0.21 |
| UAUGAAC | -0.327 |
| GAGUCUG | -0.295 |
| GUUCUGC | -0.581 |
| UACCGUC | -0.756 |
| AAUCUAG | -0.386 |
| CUGUCCA | -0.698 |
| UGGCGGA | 1.83 |
| GUUCCUA | -0.691 |
| ACAUGUU | -0.503 |
| GGUUACA | 1.26 |

| Sequence | RNAcompete 7-mer binding Z-score |
| --- | --- |
| AGUUUAC | -0.659 |
| CAUGUAG | 0.00404 |
| AUCAUCG | -0.467 |
| ACCCUCA | -0.626 |
| UUCAACC | -0.834 |
| CAUCAAU | -0.668 |
| UAGGCAC | 0.147 |
| CGACCGU | -0.646 |
| GUCGCCG | -0.298 |
| AGUUGCA | 0.0723 |
| UUGGGAC | 1.58 |
| GGCUUCC | -0.451 |
| CUGGCAU | -0.461 |
| GGGUCAC | 1.52 |
| GCCCGGU | -0.37 |
| UCUGAGU | -0.568 |
| CAUCAGC | -0.753 |
| GAUUUGU | -0.178 |
| CCAAUGC | -0.668 |
| AGUCGGC | -0.0772 |
| AGAGACC | -0.636 |
| CGGAUCU | -0.37 |
| GCGUAGC | -0.0155 |
| CUUGUCA | -0.802 |

| Sequence | RNAcompete 7-mer binding Z-score |
| --- | --- |
| UCAAAUA | -0.626 |
| CUGAAAU | -0.561 |
| CGAUGAG | 0.699 |
| AACCUAA | -0.818 |
| ACACCGA | -0.532 |
| UCCCUGC | -0.539 |
| GCGGCAG | 0.829 |
| UUGUCUA | -0.717 |
| GUACCCC | -0.204 |
| UGAUGUC | -0.587 |
| AGCGAUA | 0.108 |
| GGCCUUG | -0.35 |
| UUGCUUU | -0.717 |
| UGCAUAC | -0.36 |
| UUUUCAU | -0.727 |
| AGCUGUU | -0.737 |
| UCCUCCC | -0.415 |
| GUGGAGA | 2.78 |
| AAGUUGU | -0.0642 |
| UUCAACA | -0.555 |
| GAUAACC | -0.597 |
| AUUGGGG | 3.01 |
| AGGUCAC | -0.155 |
| UUCUUUU | -0.675 |

| Sequence | RNAcompete 7-mer binding Z-score |
| --- | --- |
| CAAAGUC | -0.493 |
| UGACACU | -0.49 |
| CGUUUGC | -0.545 |
| UGCACUA | -0.503 |
| GGGACUA | 1.55 |
| CCGCUUU | -0.951 |
| UGGACCU | -0.0285 |
| GCGAACG | 0.738 |
| CCUUCAA | -0.847 |
| CGCGCGG | 0.849 |
| UUAGCGC | -0.535 |
| AUCUUUA | -0.86 |
| UACGUAC | -0.389 |
| CUCCCGC | -0.519 |
| CGACGGA | 1.01 |
| GGCCUAA | -0.0739 |
| GACCUUC | -0.954 |
| UACGUCG | -0.314 |
| AUCUUAG | -0.487 |
| CAUCCUA | -0.818 |
| AAUUUAC | -0.769 |
| GCGUUAG | 0.069 |
| UAGCUCG | -0.321 |
| GUGGUAA | 2.03 |

| Sequence | RNAcompete 7-mer binding Z-score |
| --- | --- |
| AGGAUAC | 0.878 |
| GGUGUUG | 2.26 |
| GCACGCU | -0.522 |
| GAGGGGG | 2.9 |
| CCACGCG | -0.431 |
| GGGUUGA | 3.8 |
| UAUCCCG | -0.792 |
| UACGACA | -0.405 |
| AUCCGGG | 0.472 |
| GCCCCGG | 0.426 |
| CUAUGCC | -0.798 |
| UGUGGUG | 1.84 |
| UAAUGCA | -0.386 |
| ACCUAGG | 0.0885 |
| CCGUACA | -0.642 |
| CUCGAUC | -0.691 |
| ACUAAAU | -0.522 |
| UACUGGA | 0.251 |
| AGCCACA | -0.668 |
| AAUUCGA | -0.584 |
| AAAAGCG | 0.378 |
| GUACUGU | -0.0804 |
| CCUCGCG | -0.483 |
| GCAUUAC | -0.431 |

| Sequence | RNAcompete 7-mer binding Z-score |
| --- | --- |
| GGUGCUC | 0.605 |
| AGGGAGU | 2.96 |
| GGUGCGU | 1.41 |
| GCAUAUA | -0.178 |
| ACCUUAG | -0.642 |
| GUGCAGA | 0.482 |
| UUCUAAA | -0.776 |
| GUUUUGA | -0.214 |
| GCCACUC | -0.73 |
| UCGUGGC | -0.00896 |
| GUGUAUU | 0.0528 |
| AUGGUCA | 0.975 |
| CACCGCG | 0.069 |
| CGACAUA | -0.506 |
| UGAGAGG | 1.94 |
| AAGAUGG | 2.94 |
| AUCUUUG | -0.759 |
| CUCCGAU | -0.74 |
| ACCACGU | -0.366 |
| AUAUAAA | -0.444 |
| AGCAAAA | -0.175 |
| UUGUACC | -0.62 |
| CUCGCCA | -0.5 |
| CAAUUAC | -0.75 |

| Sequence | RNAcompete 7-mer binding Z-score |
| --- | --- |
| GGGAGCA | 2.14 |
| GUUUUAA | -0.47 |
| GUGCUGU | -0.0707 |
| GGUUUCG | 1.04 |
| UUCGACA | -0.665 |
| CCCCCGU | -0.0155 |
| GGUCGUA | 0.241 |
| AACGAAG | -0.194 |
| CUAUCCA | -0.886 |
| CUUAAUG | -0.451 |
| GUACCCG | -0.444 |
| UUCGGCU | -0.535 |
| CUCUACU | -0.711 |
| CCAUUGG | -0.558 |
| ACCGUAG | -0.357 |
| ACUACUA | -0.402 |
| UGCAAAC | -0.337 |
| GUUGCGU | 0.257 |
